# Laboratory results from the supplement of paper PMC11417369.
# ± gives the standard deviation of the averaged measurements. This is one part of the list.
# Tested on: PfAP2-LT AP2 domain (GST-tagged)
# Test: gcPBM binding intensity (ln(normalized median fluorescence intensity)); higher = stronger DNA binding
# Procedure, shortened: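 Binding intensity is defined as the maximum Masliner-normalised natural-log median intensity across replicate spots for either probe orientation. It was measured on an Agilent 4 × 180k array of primer-extended double-stranded 36-bp intergenic genomic probes and negative controls, to which GST-tagged P. falciparum DNA-binding domains made in E. coli were applied for 1 h in 1× PBS with 1% milk, 0.2 mg/ml BSA, 0.5% salmon testes DNA and 0.03% Triton X-100. Detection was by Alexa488 anti-GST antibody and scanning at 488 nm.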
row,Sequence,gcPBM binding intensity (ln)
1,TACATATACAGACACACACACACACCCCCACAAAAA [CACACA_site495],10.45 ± 0.099
2,AAATTGAATTAGTTAACACACAACTTTTATTTCATA [CACACA_site2840],8.74 ± 0.4
3,TATATATATTTATGTACACACATCAATCATATTAAC [CACACA_site5127],9 ± 0.37
4,ATAAAGATTAATTCAAGTACACATCAAATACTACAA [XGTACX_site8794],8.79 ± 0.38
5,ATACTTTATTCGTTAGCACACAATTCAAGTTGATTC [CACACA_site1123],9.16 ± 0.4
6,TATTCCCTTCTTCCTTCTGTTTTTGATATTAAAGGG [GTGCAC_negctrl_site270],8.71 ± 0.42
7,AAGATACCCCAAAATTGTACATATTAAAATAATAAA [XGTACX_site3603],8.95 ± 0.38
8,AGGTATATATACATATGTACGTATATATATATATAT [XGTACX_site5115],9.88 ± 0.47
9,ATAAAATAAACATAAATAAACATAAATAAACAAAAA [CACACA_negctrl_site1270],8.95 ± 0.52
10,TATAATACAACATGCACACATATATATGTGAATCTC [CACACA_site2490],9.29 ± 0.28
11,TTTAAAAATAAAAGTACACACATAAACATATTACAC [CACACA_site1428],9.14 ± 0.39
12,TTATATAAATTATTTACACACAAACATTTATACTTT [CACACA_site3449],8.96 ± 0.45
13,GGCGTATGTGTATATACACACCCACGTATATAAATA [CACACA_site7489],9.22 ± 0.45
14,TTTCTAATTTATATCACACACATATTTATATAGTAA [CACACA_site6813],8.85 ± 0.32
15,ATAATCCAACTTTGAGTGCGTGGTGTTTTTTTTTTC,9.07 ± 0.43
16,GGAATATTTTATGAGTGTACATTTTTTTTTTTTTTT [XGTACX_site2370],8.57 ± 0.44
17,TTTCTTTTTTTTTTTTTTTCTTTTTTTTTTTTTTTC [CACACA_negctrl_site1025],8.37 ± 0.52
18,TATATATACATATACACACATACGTACATACATATA [CACACA_site3585],9.13 ± 0.39
19,TACATACATATATATACACACATATATAATATATAT [CACACA_site388],9.07 ± 0.31

row,Sequence,gcPBM binding intensity (ln)
1,AAAAAAAAAAATAAATAAATAAATAAATATATATAT [TGCATGCA_negctrl_site468],8.61 ± 0.38
2,ATATTCATATATACTTCACACACATTTTATCATTCA [CACACA_site8784],9.26 ± 0.34
3,ATGAAAGTAAGACATGCATGGAATTTTTTTTATTAG [TGCATGCA_site348],8.79 ± 0.38
4,TTTTTTTTTTTTGAAGTGCATTACTTTTTTTGTATT [GTGCAC_site9811],8.62 ± 0.52
5,TTTTTTGTGTTTGGTACACACGTTATAAAAAATAAA [CACACA_site4866],8.51 ± 0.43
6,AGGAATATAAAGTGCACACATAATTTGGGGGCAAAA [CACACA_site258],9.25 ± 0.44
7,GAAAATAGCTAAAATACACACAATTAAAAATTATTA [CACACA_site3506],8.93 ± 0.5
8,ATATGTCACTTGTATACACACATATATATTTCAATC [CACACA_site3256],9.36 ± 0.34
9,TTACTTATAAATAAATATACAAAAATGTTATATATA [XGTACX_negctrl_site223],8.24 ± 0.38
10,CTGAAAAAAAAGCTTGCACACGTATTTGCTTTATGT [CACACA_site8427],9.24 ± 0.38
11,TTTTTTTTTTTTTGCACACACATTGAATTATTATTC [CACACA_site197],9.35 ± 0.38
12,ATAAGAAAATATAAAATGCACACTATAAATTGTATA [CACACA_site143],8.89 ± 0.42
13,TATACCTATATACATACATGCAAATATATATTCATA [TGCATGCA_site269],8.71 ± 0.38
14,TATATAGAGAGATATGCACACTGTATGAATGCCCCC [CACACA_site5476],9.665 ± 0.035
15,TTGTAAAACTTATAATGTACATTTTTTTTTTTTTTT [XGTACX_site5398],8.51 ± 0.6
16,AGGGACATCTATATCACACACAAAAATTAGTCCCTT [CACACA_site7330],9.28 ± 0.4
17,TTTGAGATAAAAGACTGTACTTAGAATGTATAAAAA [XGTACX_site203],8.48 ± 0.6
18,AAAAAAAAAAAAAACTGTACCAAAAAGAATATATAC [XGTACX_site8345],8.82 ± 0.43
19,ATATATATATATATATGTACATAAATATTTTAAAAT [XGTACX_site4980],9.21 ± 0.2

row,Sequence,gcPBM binding intensity (ln)
1,TTTAATTTTATATAGAGTACAAAAAAATAGAAAGAT [XGTACX_site3870],8.69 ± 0.41
2,AATATATGTTTAATTTCACACACAAATATACATTTT [CACACA_site9385],9.23 ± 0.45
3,ATATATATATATATATGTACACATATACGCTTTTTC [XGTACX_site3838],9.71 ± 0.57
4,TACTCCTTAAATATATGTAAAGGAAGAAAAAAAAAA [XGTACX_negctrl_site306],8.4 ± 0.51
5,TTGTTTCTACAATTTAATAAAATACGTTTTCAAAAA [XGTACX_negctrl_site377],8.03 ± 0.42
6,ACAATAAAAATAAAAAGTACAAATAAAAAAAATAAA [XGTACX_site6718],8.85 ± 0.52
7,TATAATAATACGTATTGTACTATTAGGTTAATTCGT [XGTACX_site264],8.78 ± 0.36
8,TTTTCTTGTAAATTACGTACGAATGTGTAGAGAAAT [XGTACX_site1339],8.63 ± 0.45
9,ACTTGTAAGAAACACACACACACACCCATATATATA [CACACA_site796],10.2 ± 0.16
10,TCTATAAAGGAATATACACACATATATATATATATA [CACACA_site410],9.79 ± 0.21
11,AAGTAAAATAAGTATACACACATAAATATATATATA [CACACA_site685],9.22 ± 0.4
12,TAAAATATAAAACACACACACATATATATATATATT [CACACA_site224],9.72 ± 0.11
13,ATCCTCTTTACAATATGTACATAAATATATATTTAT [XGTACX_site8001],9.17 ± 0.49
14,TATTTATTTATTTATTTATTTATTTATTTATATTTA [CACACA_negctrl_site398],8.44 ± 0.52
15,TATATATTTTTATTATGTACATATTAACAATGTGTT [XGTACX_site879],8.81 ± 0.41
16,TATATATATAAATACACACACATATATATATATATA [CACACA_site4867],9.74 ± 0.085
17,TATATACTCATGCGCACACACAAGTGGGAAATTTGG [CACACA_site5056],9.47 ± 0.43
18,TTCTTTAAAAAATTCGATAAAAAAAAAAAAAGAAAA [CACACA_negctrl_site242],8.04 ± 0.45
